Experimental data: PubChem BioAssay AID686979 (National Center for Advancing Translational Sciences (NCATS), 2013)
Where “and” joins values, the source holds several entries; their conditions need not be identical. Identical values can stand only once. Screen size: about 420,000 compounds; about 50,000 (12%) were called active. This list was built around the results that the source calls inconclusive (neither active nor inactive); the mix of calls is not that of the screen. Calls follow the shape of the dose curve; as a rule, active = well fitted inhibition curve with a large enough effect; inconclusive = small, poorly fitted or top-dose-only effect; inactive = flat fitted curve, though single readings scatter. Potencies beside an inconclusive call are fits to weak or partial responses and may not hold up.

Experiment: qHTS for Inhibitors of human tyrosyl-DNA phosphodiesterase 1 (TDP1): qHTS in cells in presence of CPT; also: nearly all actives have a fitted effect of over 55% in size
Conditions: chicken DT40 Tdp1-/-;hTDP1 cells + 20 nM CPT, ATP luminescence, 48 h; activity change, negative = growth inhibition: at 46.2 µM (top of the series) unless noted
Summary of the method: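 Chicken DT40 Tdp1-/- cells stably complemented with human TDP1 were seeded at 400 cells/well in medium containing 20 nM camptothecin, exposed to pin-transferred compounds, and grown at 37 °C for at least 48 hr. Viability was read as ATP luminescence.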
% is scaled to controls: 0 for no effect and ±100 for the full control effect; potency is read from the fitted curve at half-maximal effect; tags tell the direction and shape of the fitted curve.

| SMILES | activity change, negative = growth inhibition | Potency |
| --- | --- | --- |
| CCOC(=O)c1c(C)[nH]c(C)c1C(=O)CN1C(=O)NC2(CCC(C)CC2)C1=O (centres undefined) | inactive: -24.7% |  |
| COC(=O)[C@]12CCCCC=C1N(CCC1=CCCCC1)C(=O)[C@H](CC(=O)NCCCCc1ccccc1)C2 |  | inconclusive: 18.4 µM [inhibitor, single point] |
| COc1ccc(-c2noc3c2-c2nc(-c4ccc(C)cc4)sc2CC3)cc1 |  | inconclusive: 29.1 µM [inhibitor, single point] |
| COc1ccc(CN(C(=O)c2snc(C(N)=O)c2N)C(C(=O)NC2CCCC2)c2ccc(OC)c(OC)c2)cc1 (centres undefined) |  | inconclusive: 25.9 µM [inhibitor, single point] |
| CN1CCN(c2nc3c(c(=O)[nH]c(=O)n3C)n2CCOc2ccccc2)CC1 |  | inconclusive: 23.1 µM [inhibitor, single point] |
| O=C(c1ccc(Br)o1)N1CCN(c2ccccc2F)CC1 | inactive: 6.82% |  |
| O=C(CSc1ccc2nnc(CCNC(=O)c3ccc(F)cc3)n2n1)NCc1ccco1 | inactive: 9.69% |  |
| COC(=O)[C@@]1(C)[C@H]2C(=O)N(Cc3ccccc3)C(=O)[C@H]2[C@H]2CN=C(SCc3ccc(C)cc3)N21 |  | inconclusive: 29.1 µM [inhibitor, single point] |
| O=C(Nc1ncc([N+](=O)[O-])s1)c1cccc([N+](=O)[O-])c1 |  | active: 9.2 µM |
| CC(C)(C)c1ccc(C(=O)N2CCC(C(=O)NCCC3=CCCCC3)CC2)cc1 |  | inconclusive: 20.6 µM [inhibitor, single point] |
| CC(C)CCN(C(=S)Nc1cccc(C(F)(F)F)c1)C(C)c1ccccn1 (centres undefined) | inactive: -29.9% |  |
| CC(C)CCNC(=O)c1ccc2c(c1)ncn2C1CCCCC1 |  | inconclusive: 29.1 µM [inhibitor, single point] |
| COc1ccccc1CNC(=O)c1ccc(-c2ccccc2)cc1 | inactive: 11.9% |  |
| CC1(C)C(\C=C/C=C\C=C/C=C2/N(CCCCS(=O)(=O)O)c3ccc4ccccc4c3C2(C)C)=[N+](CCCCS(=O)(=O)[O-])c2ccc3ccccc3c21 |  | inconclusive: 29.9 µM [inhibitor, single point] |
| Cc1cccc(-n2c(N)c(C(=O)NCCN3CCOCC3)c3nc4ccccc4nc32)c1 |  | inconclusive: 29.1 µM [inhibitor, single point] |
| Cc1ccc(NC(=O)NCC2CCN(Cc3cccc(Cl)c3)CC2)cc1Cl |  | inconclusive: 20.6 µM [inhibitor, single point] and inconclusive: 29.1 µM [inhibitor, single point] |
| CC1CC(C)CN(C(=O)CSc2nc(Cc3cccs3)nc3ccccc23)C1 (centres undefined) |  | inconclusive: 29.1 µM [inhibitor, single point] |
| CCCC(=O)Nc1cc(-c2nc3cccnc3s2)ccc1C | inactive: -9.24% |  |
| CCCCN1CC[C@H]2C=CC[C@@H](C(=O)Nc3ccccc3)[C@H]2C1=O |  | inconclusive: 14.1 µM [inhibitor, single point] |
| CCOc1ccc(C(=O)c2cn(Cc3ccc(OC)cc3)c3cc(OC)c(OC)cc3c2=O)cc1 |  | inconclusive: 23.1 µM [inhibitor, single point] |
| CN(C)C(=O)c1cccc(-c2cccc3nccn23)c1 |  | inconclusive: 0.58 µM [inhibitor, full curve, poor fit] |
| O=C(C[n+]1cc(Br)cc(Br)c1)c1ccccc1 |  | inactive |
| Cc1onc(-c2ccccc2)c1C(=O)c1c[nH]c(C(=O)NCCCN2CCOCC2)c1 | inactive: 11.6% |  |

| SMILES | activity change, negative = growth inhibition | Potency |
| --- | --- | --- |
| COc1cccc(-n2c(-c3ccco3)nc3c(cnn3-c3ccc(C)cc3)c2=O)c1 |  | active: 14.6 µM |
| COCc1ccc(C(=O)N2CCCC(C(=O)c3ccc(Cl)cc3C)C2)o1 (centres undefined) |  | inconclusive: 14.6 µM [inhibitor, partial curve, poor fit] |
| CC1=C(C(=O)N(C(C)C)C(C)C)CC(CC(=O)NCc2cccc3ccccc23)C(=O)N1Cc1ccc(C(C)(C)C)cc1 (centres undefined) |  | inconclusive: 29.1 µM [inhibitor, single point] |
| COc1ccc(-c2nc3ccc(C)cn3c2NCc2ccccc2)cc1SC1CCCCC1 |  | active: 13 µM |
| COc1ccc(S(=O)(=O)N2CCOC23CCN(S(=O)(=O)c2ccc([N+](=O)[O-])cc2)CC3)cc1 |  | active: 11.6 µM |
| CCc1nnc(NC(=O)c2cc3c(s2)CCCCC3)s1 |  | inconclusive: 29.1 µM [inhibitor, single point] |
| CC(C)c1cccc(C2=CC(=O)C[C@H](c3ccc(F)cc3)C2)c1 |  | inconclusive: 16.4 µM [inhibitor, single point] |
| CC(O)/C=C/c1ccc2ccccc2n1 (centres undefined) |  | active: 12.6 µM |
| CC(NC(=O)c1ccccc1)c1nnc(SCC(=O)NC2CCCC2)n1C (centres undefined) | inactive: 0.079% |  |
| O=C(Nc1ccncc1)C1COc2ccccc2O1 (centres undefined) |  | inconclusive: 23.1 µM [inhibitor, partial curve] |
| CC(C)(C)c1cc(/C=C2\NC(=O)NC2=O)cc(C(C)(C)C)c1O |  | inconclusive: 25.9 µM [inhibitor, single point] |
| COc1ccc(C=NNc2nc3ccccc3s2)cc1 | inactive: -1.1% |  |
| COc1ccc(OC)c(CN2C(=O)CCC2(C)c2nnnn2-c2c(C)cccc2C)c1 (centres undefined) |  | inconclusive: 29.1 µM [inhibitor, single point] |
| COc1cc(CN2CCC(n3nccc3NC(=O)CCCc3ccccc3)CC2)ccc1F |  | inconclusive: 6.51 µM [inhibitor, single point] |
| Cc1nn(C2CCS(=O)(=O)C2)c(Cl)c1/C=C/C(=O)OCC(=O)c1c[nH]c2ccccc12 (centres undefined) |  | inconclusive: 18.4 µM [inhibitor, single point] |
| CCN(CC(=O)NCc1ccc(Cl)cc1)C(=O)COc1cccc(Cl)c1 | inactive: -18.3% |  |
| CC(=O)Nc1cccc(NC(=O)Nc2ccc(C)c(Cl)c2)c1 | inactive: -3.2% |  |
| O=C(NCc1ccncc1)c1cccc(S(=O)(=O)Nc2ccc(SC(F)F)cc2)c1 | inactive: -16.7% |  |
| O=C1C=CC(=O)N1c1ccc(OC(F)F)cc1 |  | active: 0.411 µM |
| O=C(O)c1cc(O)c2c(c1)C(=O)c1cccc(O)c1C2=O |  | inconclusive: 18.4 µM [inhibitor, single point] |
| CCCOc1ccc(C2C(=O)N(C3CCCCC3)CC(=O)N2CCC)cc1OC (centres undefined) | inconclusive: -33.7% [inhibitor] |  |
| O=C(Nc1cc(Cl)ccc1Cl)C1(c2cccs2)CCOCC1 |  | active: 16.4 µM |
| CCN(C[C@H]1N[C@@](Cc2ccccc2)(C(=O)OC)[C@H]2C(=O)N(C)C(=O)[C@@H]12)S(=O)(=O)c1ccc(OC)cc1 |  | active: 14.6 µM |

| SMILES | activity change, negative = growth inhibition | Potency |
| --- | --- | --- |
| COc1ccccc1Cc1c(C2CCCCC2)nc2ccc(Br)cn12 |  | active: 8.2 µM |
| Cc1noc(Cn2c(=O)c3ccccc3n(CC(=O)Nc3ccc(Cl)cc3)c2=O)n1 |  | inconclusive: 16.4 µM [inhibitor, partial curve] |
| CC(=O)c1ccc(Nc2nc(C(N)C3CCCCC3)cs2)cc1 (centres undefined) |  | active: 13 µM |
| Cc1cccc(C)c1OCc1cc(C(=O)N(C)Cc2cc(C3CC3)n[nH]2)no1 |  | inconclusive: 29.1 µM [inhibitor, single point] |
| Cc1ccc(OCCNC(=O)c2ccc(COc3ccccc3)o2)cc1 |  | inconclusive: 29.1 µM [inhibitor, single point] |
| C1=Cc2ccccc2/C1=C\c1ccc2c(c1)OCO2 | inactive: -23.7% |  |
| Cc1cccc(C)c1N(CC(O)Cn1c2ccccc2c2ccccc21)S(C)(=O)=O (centres undefined) |  | inconclusive: 20.6 µM [inhibitor, single point] |
| CN(C)c1ccc(C(CNS(=O)(=O)c2ccc(F)cc2)N2CCCC2)cc1 (centres undefined) |  | inconclusive: 23.1 µM [inhibitor, single point] |
| O=C(CCS(=O)(=O)c1nc(-c2ccc3c(c2)OCO3)cc(C(F)(F)F)n1)Nc1ccc(F)c(Cl)c1 |  | active: 2.59 µM |
| Clc1ccc(-c2nnc(Sc3nc4ccccc4o3)c3ccccc23)cc1 |  | inconclusive: 29.1 µM [inhibitor, single point] |
| O=C(NC1CCCCC1)N(CCN1CCOCC1)Cc1cc2cc3c(cc2[nH]c1=O)OCCO3 |  | active: 13 µM |
| COc1ccc(COC(=O)C2CC(=O)N(Cc3ccccc3)C2)cc1 (centres undefined) | inactive: -7.32% |  |
| CCc1cccc(OCC(=O)Nc2ccc(S(=O)(=O)N3CCCC3)cc2)c1 |  | inconclusive: 14.6 µM [inhibitor, partial curve, poor fit] |
| CCn1c(=O)c(C(=O)NCc2ccc(Cl)cc2)c(O)c2ccccc21 |  | active: 20.6 µM |
| COc1ccc(Nc2ncc(C(=O)Nc3cc(Cl)c(OC)cc3OC)c3ccccc23)cc1 |  | inconclusive: 20.6 µM [inhibitor, partial curve] |
| Cc1cc(C)c2c(=O)n(CC(=O)NCCCN3CCOCC3)sc2n1 |  | active: 4.11 µM |
| CCCCN(C)CCCNC(=O)CN1N=C(c2ccc(Cl)cc2)CCC1=O | inactive: -13.6% |  |
| COC(=O)[C@@]1(Sc2ccccc2)CC(=O)N[C@@H]1c1ccccc1 | inactive: 7.6% |  |
| CCCCNC(=S)N(CCCN(C)C)Cc1cc2cc3c(cc2[nH]c1=O)OCO3 | inactive: -1.29% |  |
| Cc1cc(Cl)c2oc(C(=O)N3CCN(c4ccncc4)CC3)c(C)c2c1 |  | active: 20.6 µM |
| COc1ccc(C(CC(=O)N2CCCC(C)C2)c2c(OC)cc(OC)c3c(-c4ccccc4)cc(=O)oc23)cc1 (centres undefined) |  | inconclusive: 29.1 µM [inhibitor, single point] |
| Cc1cc(C)cc(NC(=O)CN2CCc3cc4c(cc3C2C)OCCCO4)c1 (centres undefined) |  | inconclusive: 29.1 µM [inhibitor, single point] |
| COc1ccc(N2CCN(C(=O)c3ccc(Nc4nc5ccccc5n5nnnc45)cc3)CC2)cc1 |  | inconclusive: 7.31 µM [inhibitor, partial curve] |
